The target in the assay is B7H3 protein on human tumor cells (MCF-7, A549, PC-3, HT29) (human), Q5ZPR3. In words: cell-based or functional assay.
Chain of B7H3 protein on human tumor cells (MCF-7, A549, PC-3, HT29) (human), Q5ZPR3 (Q5ZPR3 29-534): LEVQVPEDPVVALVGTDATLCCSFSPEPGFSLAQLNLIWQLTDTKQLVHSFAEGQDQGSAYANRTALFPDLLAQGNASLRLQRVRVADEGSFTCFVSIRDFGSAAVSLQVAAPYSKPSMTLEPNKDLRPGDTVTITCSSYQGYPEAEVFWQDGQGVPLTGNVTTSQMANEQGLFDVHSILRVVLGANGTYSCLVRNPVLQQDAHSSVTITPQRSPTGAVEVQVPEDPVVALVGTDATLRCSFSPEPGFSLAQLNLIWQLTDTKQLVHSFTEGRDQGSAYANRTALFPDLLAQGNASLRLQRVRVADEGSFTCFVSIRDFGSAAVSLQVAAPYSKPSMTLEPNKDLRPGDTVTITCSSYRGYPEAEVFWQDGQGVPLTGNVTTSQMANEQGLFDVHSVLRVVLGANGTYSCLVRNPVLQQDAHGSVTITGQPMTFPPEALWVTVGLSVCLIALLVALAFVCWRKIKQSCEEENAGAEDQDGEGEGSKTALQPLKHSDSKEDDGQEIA

B1: B7H3-ADC-01 (DAR8), coupling product of DL-001 and B7H3 antibody 2E3-02, P0DOX5 1-449 (protein)
heavy: EVQLLESGGGLVQPGGSLRLSCAASGFTFSSYAMNWVRQAPGKGLEWVSGISGSGGSTYYADSVQGRFTISRDNSKNTLYLQMNSLRAEDTAVYYCAKARSGYDYFFDYWGQGTLVTVSS[sequence of human IgG1 constant region omitted]
light: EIVLTQSPGTLSLSPGERATLSCRASQRISSSFLAWYQQKPGQAPSLLIYGASSRATGIPDRFSGSGSGTDFTLTISSLEPEDFAVFYCQQYSNSPLTFGGGTKVEIKRTVAAPSVFIFPPSDEQLKSGTASVVCLLNNFYPREAKVQWKVDNALQSGNSQESVTEQDSKDSTYSLSSTLTLSKADYEKHKVYACEVTHQGLSSPVTKSFNRGEC
modifications: here or on the partner: one DL-001 (eribulin drug-linker) payload molecule per light chain, attached via the S atom of a cysteine after TCEP reduction; position not stated; three DL-001 (eribulin drug-linker) payload molecules per heavy chain, attached via S atoms of cysteines after TCEP reduction; positions not given
For the molecule B1, the IC50, inhibitory activity on cell viability in vitro (CCK8, 7 days), A549 cells is 0.23 nM and the IC50, inhibitory activity on cell viability in vitro (CCK8, 7 days), HT29 cells worked out at 0.039 nM.

Source of the values: patent publication US20250144229A1, “CONJUGATE OF ANTIBODY-ERIBULIN OR DERIVATIVE THEREOF, INTERMEDIATE THEREOF, PREPARATION METHOD THEREFOR, PHARMACEUTICAL COMPOSITION THEREOF AND USE THEREOF” (MEDLINK THERAPEUTICS (SUZHOU) CO., LTD., priority 2022, published 2025).
